{"source": "paper PMC9545476", "about": "“Structure‐guided engineering of key amino acids in UGT85B1 controlling substrate and stereo‐specificity in aromatic cyanogenic glucoside biosynthesis” (The Plant Journal, 2022)", "key": {"PdUGT85A19": {"target": "T1, PdUGT85A19 (Prunus dulcis, UniProt B2XBQ5)", "T1 construct": "gene UGT85A19", "T1 sequence (B2XBQ5 whole entry, looked up)": "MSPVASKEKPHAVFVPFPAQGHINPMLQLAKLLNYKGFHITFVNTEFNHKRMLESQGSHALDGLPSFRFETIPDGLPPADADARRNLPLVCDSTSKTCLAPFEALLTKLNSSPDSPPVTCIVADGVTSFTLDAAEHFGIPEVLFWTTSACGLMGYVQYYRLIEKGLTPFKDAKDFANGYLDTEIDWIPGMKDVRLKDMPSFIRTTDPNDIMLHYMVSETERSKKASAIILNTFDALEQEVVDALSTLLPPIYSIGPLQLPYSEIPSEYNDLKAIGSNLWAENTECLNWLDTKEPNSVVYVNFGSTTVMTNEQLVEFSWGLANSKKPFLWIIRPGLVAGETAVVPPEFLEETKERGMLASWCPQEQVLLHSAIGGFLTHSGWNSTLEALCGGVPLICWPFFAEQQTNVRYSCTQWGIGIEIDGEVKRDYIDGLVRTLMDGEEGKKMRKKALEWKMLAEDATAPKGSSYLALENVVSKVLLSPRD", "conditions": "600 uM UDP-glucose, pH 7.5, 30 C"}, "EcUGT85A59": {"target": "EcUGT85A59 (Eucalyptus cladocalyx, UniProt A0A3G2LJ70)", "conditions": "UDP-glucose"}, "SbUGT85B1 [1]": {"target": "T2, SbUGT85B1 (Sorghum bicolor, UniProt Q9SBL1)", "T2 construct": "gene UGT85B1", "T2 sequence (Q9SBL1 whole entry, looked up)": "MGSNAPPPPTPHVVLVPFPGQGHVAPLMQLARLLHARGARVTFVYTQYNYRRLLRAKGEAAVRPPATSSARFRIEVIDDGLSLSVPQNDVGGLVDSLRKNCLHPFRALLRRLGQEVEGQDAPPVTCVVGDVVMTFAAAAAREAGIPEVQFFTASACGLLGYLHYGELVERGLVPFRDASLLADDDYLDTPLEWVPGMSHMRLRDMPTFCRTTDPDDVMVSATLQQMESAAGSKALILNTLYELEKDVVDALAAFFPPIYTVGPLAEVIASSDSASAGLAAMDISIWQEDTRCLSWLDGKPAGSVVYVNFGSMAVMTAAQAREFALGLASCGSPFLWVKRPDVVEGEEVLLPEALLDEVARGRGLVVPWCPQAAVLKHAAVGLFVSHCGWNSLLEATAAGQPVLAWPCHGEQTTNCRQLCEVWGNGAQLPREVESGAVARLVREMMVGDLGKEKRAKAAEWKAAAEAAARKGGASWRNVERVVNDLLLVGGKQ", "conditions": "600 uM UDP-glucose, pH 7.5, 30 C"}, "SbUGT85B1 [2]": {"target": "T2, SbUGT85B1", "conditions": "with UDP; racemate added to crystals; sugar acceptor site"}, "[3]": {"conditions": "600 uM racemic p-hydroxymandelonitrile, product taxiphyllin"}}, "note": "Where two headings read alike, the source gives them in different places.", "data": [{"smiles": "N#C[C@H](O)c1ccc(O)cc1", "note": "(mixture of isomers)", "values": [{"measurement": "LC-MS/MS of glucoside product", "setting": "PdUGT85A19; [3]", "value": "catalyze the formation of taxiphyllin by utilizing (R)‐p‐hydroxymandelonitrile as substrate"}]}, {"smiles": "N#C[C@H](O)c1ccccc1", "note": "(mixture of isomers) [(R)-mandelonitrile]", "values": [{"measurement": "LC-MS/MS of glucoside product", "setting": "EcUGT85A59; racemic mandelonitrile, product prunasin", "value": "EcUGT85A59 displayed a preference for (R)‐mandelonitrile"}, {"measurement": "LC-MS/MS of glucoside product", "setting": "PdUGT85A19; 600 uM racemic mandelonitrile, product prunasin", "value": "as demonstrated by production of prunasin and taxiphyllin"}]}, {"smiles": "N#C[C@H](O)c1ccc(O)cc1", "note": "(mixture of isomers) [(R)-p-hydroxymandelonitrile]", "values": [{"measurement": "LC-MS/MS of glucoside product", "setting": "SbUGT85B1 [1]; [3]", "value": "also able to catalyze the conversion of the (R)‐isomer into taxiphyllin"}, {"measurement": "LC-MS/MS of glucoside product", "setting": "EcUGT85A59; racemic p-hydroxymandelonitrile, product taxiphyllin", "value": "EcUGT85A59 is able to convert p‐hydroxymandelonitrile into taxiphyllin"}]}, {"smiles": "N#C[C@@H](O)c1ccccc1", "note": "(mixture of isomers) [(S)-mandelonitrile]", "values": [{"measurement": "LC-MS/MS of glucoside product", "setting": "SbUGT85B1 [1]; 600 uM racemic mandelonitrile, product sambunigrin", "value": "able to catalyze glucosylation of mandelonitrile mainly resulting in sambunigrin"}]}, {"smiles": "N#C[C@@H](O)c1ccc(O)cc1", "note": "[(S)-p-hydroxymandelonitrile]", "values": [{"measurement": "X-ray crystal structure (1.50 A)", "setting": "SbUGT85B1 [2]", "value": "clearly indicates the bound p‐hydroxymandelonitrile to be in the (S)‐configuration"}]}]}
